# Measured values published in the supplement of paper PMC8728848.
# The other results are listed elsewhere or left out.
# B1: Gal 8 (Homo sapiens) (protein)
# chain: MLSLNNLQNIIYNPVIPYVGTIPDQLDPGTLIVICGHVPSDADRFQVDLQNGSSVKPRADVAFHFNPRFKRAGCIVCNTLINEKWGREEITYDTPFKREKSFEIVIMVLKDKFQVAVNGKHTLLYGHRIGPEKIDTLGIYGKVNIHSIGFSFSSDLQSTQASSLELTEISRENVPKSGTPQLQTVSPSWDLQGHGSETFCSVLWTRVFLEIAFCRPIGLTVASFQSLPFAARLNTPMGPGRTVVVKGEVNANAKSFNVDLLAGKSKDIALHLNPRLNIKAFVRNSFLQESWGEEERNITSFPFSPGMYFEMIIYCDVREFKVAVNGVHSLEYKHRFKELSSIDTLEINGDIHLLEVRSW
# Key:
# Assay in all cases: glycan array binding signal (z-score within array); higher = stronger binding
# Conditions in all cases: glycan notation: IUPAC condensed, linker removed
# [1] = molecular target: GlcNAc(a1-3)Gal(b1-4)GlcNAc
# How it was run: (§1)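 Negative Z-scores can be read as non-binding. The Z-score is calculated within each array and then averaged across arrays of one protein sequence at different concentrations or buffers and across linkers. Arrays, 3228 in all, were curated from the Consortium for Functional Glycomics database and kept only where the protein sequence was available.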
# [2] = molecular target: GlcNAc(a1-4)Gal(b1-3)GlcNAc
# How it was run: as §1
# [3] = molecular target: GlcNAc(a1-4)Gal(b1-4)GalNAc
# How it was run: as §1
# [4] = molecular target: GlcNAc(a1-4)Gal(b1-4)GlcNAc
# How it was run: as §1
# [5] = molecular target: GlcNAc(a1-4)Gal(b1-4)GlcNAc(b1-3)Gal(b1-4)Glc
# How it was run: as §1
# [6] = molecular target: GlcNAc(a1-4)Gal(b1-4)GlcNAc(b1-3)Gal(b1-4)GlcNAc
# How it was run: as §1
# [7] = molecular target: GlcNAc(a1-4)Gal(b1-4)GlcNAc(b1-3)Gal(b1-4)GlcNAc(b1-3)Gal(b1-4)GlcNAc
# How it was run: as §1
# [8] = molecular target: GlcNAc(a1-4)Gal(b1-4)GlcNAc(b1-3)Gal(b1-4)[Fuc(a1-3)]GlcNAc(b1-3)Gal(b1-4)[Fuc(a1-3)]GlcNAc
# How it was run: as §1
# [9] = molecular target: GlcNAc(a1-6)Gal(b1-4)GlcNAc
# How it was run: as §1
# [10] = molecular target: GlcNAc(b1-2)Gal(b1-3)GalNAc
# How it was run: as §1
# [11] = molecular target: GlcNAc(b1-2)Man(a1-3)[GlcNAc(b1-2)Man(a1-6)]Man(b1-4)GlcNAc(b1-4)GlcNAc
# How it was run: as §1
# [12] = molecular target: GlcNAc(b1-2)Man(a1-3)[GlcNAc(b1-2)Man(a1-6)]Man(b1-4)GlcNAc(b1-4)[Fuc(a1-6)]GlcNAc
# How it was run: as §1
# [13] = molecular target: GlcNAc(b1-2)Man(a1-3)[GlcNAc(b1-4)][GlcNAc(b1-2)Man(a1-6)]Man(b1-4)GlcNAc(b1-4)GlcNAc
# How it was run: as §1
# [14] = molecular target: GlcNAc(b1-2)Man(a1-3)[GlcNAc(b1-4)][GlcNAc(b1-2)Man(a1-6)]Man(b1-4)GlcNAc(b1-4)[Fuc(a1-6)]GlcNAc
# How it was run: as §1
# [15] = molecular target: GlcNAc(b1-2)[GlcNAc(b1-4)]Man(a1-3)[GlcNAc(b1-2)Man(a1-6)]Man(b1-4)GlcNAc(b1-4)GlcNAc
# How it was run: as §1
# [16] = molecular target: GlcNAc(b1-2)[GlcNAc(b1-4)]Man(a1-3)[GlcNAc(b1-4)][GlcNAc(b1-2)Man(a1-6)]Man(b1-4)GlcNAc(b1-4)GlcNAc
# How it was run: as §1
# [17] = molecular target: GlcNAc(b1-2)[GlcNAc(b1-4)]Man(a1-3)[GlcNAc(b1-4)][GlcNAc(b1-2)[GlcNAc(b1-6)]Man(a1-6)]Man(b1-4)GlcNAc(b1-4)GlcNAc
# How it was run: as §1
# [18] = molecular target: GlcNAc(b1-2)[GlcNAc(b1-4)]Man(a1-3)[GlcNAc(b1-4)][GlcNAc(b1-2)[GlcNAc(b1-6)]Man(a1-6)]Man(b1-4)GlcNAc(b1-4)[Fuc(a1-6)]GlcNAc
# How it was run: as §1
# [19] = molecular target: GlcNAc(b1-2)[GlcNAc(b1-6)]Man(a1-6)[GlcNAc(b1-2)Man(a1-3)]Man(b1-4)GlcNAc(b1-4)GlcNAc
# How it was run: as §1
# [20] = molecular target: GlcNAc(b1-2)[GlcNAc(b1-6)]Man(a1-6)[GlcNAc(b1-2)Man(a1-3)]Man(b1-4)GlcNAc(b1-4)[Fuc(a1-6)]GlcNAc
# How it was run: as §1
# [21] = molecular target: GlcNAc(b1-2)[GlcNAc(b1-6)]Man(a1-6)[GlcNAc(b1-4)][GlcNAc(b1-2)Man(a1-3)]Man(b1-4)GlcNAc(b1-4)GlcNAc
# How it was run: as §1
# [22] = molecular target: GlcNAc(b1-3)Fuc
# How it was run: as §1
# [23] = molecular target: GlcNAc(b1-3)Gal
# How it was run: as §1
# [24] = molecular target: GlcNAc(b1-3)Gal(b1-3)GalNAc
# How it was run: as §1
# [25] = molecular target: GlcNAc(b1-3)Gal(b1-4)Glc
# How it was run: as §1
# [26] = molecular target: GlcNAc(b1-3)Gal(b1-4)GlcNAc
# How it was run: as §1
# [27] = molecular target: GlcNAc(b1-3)Gal(b1-4)GlcNAc(b1-2)Man(a1-3)[GlcNAc(b1-3)Gal(b1-4)GlcNAc(b1-2)Man(a1-6)]Man(b1-4)GlcNAc(b1-4)GlcNAc
# How it was run: as §1
# [28] = molecular target: GlcNAc(b1-3)Gal(b1-4)GlcNAc(b1-2)Man(a1-3)[GlcNAc(b1-3)Gal(b1-4)GlcNAc(b1-2)Man(a1-6)]Man(b1-4)GlcNAc(b1-4)[Fuc(a1-6)]GlcNAc
# How it was run: as §1
# [29] = molecular target: GlcNAc(b1-3)Gal(b1-4)GlcNAc(b1-2)[GlcNAc(b1-3)Gal(b1-4)GlcNAc(b1-6)]Man(a1-6)[GlcNAc(b1-3)Gal(b1-4)GlcNAc(b1-2)Man(a1-3)]Man(b1-4)GlcNAc(b1-4)GlcNAc
# How it was run: as §1
# [30] = molecular target: GlcNAc(b1-3)Gal(b1-4)GlcNAc(b1-3)Gal(b1-4)GlcNAc
# How it was run: as §1
# [31] = molecular target: GlcNAc(b1-3)Gal(b1-4)GlcNAc(b1-3)Gal(b1-4)GlcNAc(b1-2)Man(a1-3)[GlcNAc(b1-3)Gal(b1-4)GlcNAc(b1-3)Gal(b1-4)GlcNAc(b1-2)Man(a1-6)]Man(b1-4)GlcNAc(b1-4)GlcNAc
# How it was run: as §1
# [32] = molecular target: GlcNAc(b1-3)Gal(b1-4)GlcNAc(b1-3)Gal(b1-4)GlcNAc(b1-2)Man(a1-3)[GlcNAc(b1-3)Gal(b1-4)GlcNAc(b1-3)Gal(b1-4)GlcNAc(b1-2)Man(a1-6)]Man(b1-4)GlcNAc(b1-4)[Fuc(a1-6)]GlcNAc
# How it was run: as §1
# [33] = molecular target: GlcNAc(b1-3)Gal(b1-4)GlcNAc(b1-3)Gal(b1-4)GlcNAc(b1-2)[GlcNAc(b1-3)Gal(b1-4)GlcNAc(b1-3)Gal(b1-4)GlcNAc(b1-6)]Man(a1-6)[GlcNAc(b1-3)Gal(b1-4)GlcNAc(b1-3)Gal(b1-4)GlcNAc(b1-2)Man(a1-3)]Man(b1-4)GlcNAc(b1-4)[Fuc(a1-6)]GlcNAc
# How it was run: as §1
# [34] = molecular target: GlcNAc(b1-3)Gal(b1-4)GlcNAc(b1-3)Gal(b1-4)GlcNAc(b1-3)Gal(b1-4)GlcNAc(b1-2)Man(a1-3)[GlcNAc(b1-3)Gal(b1-4)GlcNAc(b1-3)Gal(b1-4)GlcNAc(b1-3)Gal(b1-4)GlcNAc(b1-2)Man(a1-6)]Man(b1-4)GlcNAc(b1-4)GlcNAc
# How it was run: as §1
# [35] = molecular target: GlcNAc(b1-3)Gal(b1-4)GlcNAc(b1-3)Gal(b1-4)GlcNAc(b1-3)Gal(b1-4)GlcNAc(b1-2)Man(a1-3)[GlcNAc(b1-3)Gal(b1-4)GlcNAc(b1-3)Gal(b1-4)GlcNAc(b1-3)Gal(b1-4)GlcNAc(b1-2)Man(a1-6)]Man(b1-4)GlcNAc(b1-4)[Fuc(a1-6)]GlcNAc
# How it was run: as §1
# [36] = molecular target: GlcNAc(b1-3)Gal(b1-4)GlcNAc(b1-3)Gal(b1-4)GlcNAc(b1-3)Gal(b1-4)GlcNAc(b1-2)[GlcNAc(b1-3)Gal(b1-4)GlcNAc(b1-3)Gal(b1-4)GlcNAc(b1-3)Gal(b1-4)GlcNAc(b1-6)]Man(a1-6)[GlcNAc(b1-3)Gal(b1-4)GlcNAc(b1-3)Gal(b1-4)GlcNAc(b1-3)Gal(b1-4)GlcNAc(b1-2)Man(a1-3)]Man(b1-4)GlcNAc(b1-4)[Fuc(a1-6)]GlcNAc
# How it was run: as §1
# [37] = molecular target: GlcNAc(b1-3)Gal(b1-4)GlcNAc(b1-3)Gal(b1-4)GlcNAc(b1-3)Gal(b1-4)GlcNAc(b1-3)Gal(b1-4)GlcNAc(b1-2)Man(a1-3)[GlcNAc(b1-3)Gal(b1-4)GlcNAc(b1-3)Gal(b1-4)GlcNAc(b1-3)Gal(b1-4)GlcNAc(b1-3)Gal(b1-4)GlcNAc(b1-2)Man(a1-6)]Man(b1-4)GlcNAc(b1-4)GlcNAc
# How it was run: as §1
binder,measurement,setting,value
B1,glycan array binding signal (z-score),[1],-0.345
same,glycan array binding signal (z-score),[2],-0.357
same,glycan array binding signal (z-score),[3],-0.357
same,glycan array binding signal (z-score),[4],-0.357
same,glycan array binding signal (z-score),[5],0.419
same,glycan array binding signal (z-score),[6],0.138
same,glycan array binding signal (z-score),[7],0.82
same,glycan array binding signal (z-score),[8],-0.35
same,glycan array binding signal (z-score),[9],-0.348
same,glycan array binding signal (z-score),[10],-0.236
same,glycan array binding signal (z-score),[11],-0.47
same,glycan array binding signal (z-score),[12],-0.356
same,glycan array binding signal (z-score),[13],-0.354
same,glycan array binding signal (z-score),[14],-0.355
same,glycan array binding signal (z-score),[15],-0.354
same,glycan array binding signal (z-score),[16],-0.357
same,glycan array binding signal (z-score),[17],-0.356
same,glycan array binding signal (z-score),[18],-0.356
same,glycan array binding signal (z-score),[19],-0.353
same,glycan array binding signal (z-score),[20],-0.356
same,glycan array binding signal (z-score),[21],-0.355
same,glycan array binding signal (z-score),[22],-0.356
same,glycan array binding signal (z-score),[23],-0.396
same,glycan array binding signal (z-score),[24],-0.363
same,glycan array binding signal (z-score),[25],-0.338
same,glycan array binding signal (z-score),[26],-0.391
same,glycan array binding signal (z-score),[27],-0.235
same,glycan array binding signal (z-score),[28],-0.172
same,glycan array binding signal (z-score),[29],1.1
same,glycan array binding signal (z-score),[30],0.595
same,glycan array binding signal (z-score),[31],1.57
same,glycan array binding signal (z-score),[32],2.71
same,glycan array binding signal (z-score),[33],5.71
same,glycan array binding signal (z-score),[34],3.52
same,glycan array binding signal (z-score),[35],2.64
same,glycan array binding signal (z-score),[36],4.87
same,glycan array binding signal (z-score),[37],2.94
